The values that follow come from publication PMC8068770.

The chains behind the UniProt entries cited, without tags or fusion partners.
UniProt Q61312: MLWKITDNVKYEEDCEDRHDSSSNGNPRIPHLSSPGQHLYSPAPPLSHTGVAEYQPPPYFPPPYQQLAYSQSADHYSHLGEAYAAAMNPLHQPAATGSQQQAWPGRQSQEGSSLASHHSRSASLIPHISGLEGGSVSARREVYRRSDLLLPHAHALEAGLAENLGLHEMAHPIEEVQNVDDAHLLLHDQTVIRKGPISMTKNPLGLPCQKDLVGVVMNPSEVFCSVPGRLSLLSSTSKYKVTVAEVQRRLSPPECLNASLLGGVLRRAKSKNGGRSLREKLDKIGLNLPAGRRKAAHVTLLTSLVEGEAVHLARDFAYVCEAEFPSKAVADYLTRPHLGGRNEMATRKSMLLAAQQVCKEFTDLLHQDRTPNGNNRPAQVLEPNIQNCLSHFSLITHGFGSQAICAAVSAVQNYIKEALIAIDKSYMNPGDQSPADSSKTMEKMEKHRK
UniProt P97302: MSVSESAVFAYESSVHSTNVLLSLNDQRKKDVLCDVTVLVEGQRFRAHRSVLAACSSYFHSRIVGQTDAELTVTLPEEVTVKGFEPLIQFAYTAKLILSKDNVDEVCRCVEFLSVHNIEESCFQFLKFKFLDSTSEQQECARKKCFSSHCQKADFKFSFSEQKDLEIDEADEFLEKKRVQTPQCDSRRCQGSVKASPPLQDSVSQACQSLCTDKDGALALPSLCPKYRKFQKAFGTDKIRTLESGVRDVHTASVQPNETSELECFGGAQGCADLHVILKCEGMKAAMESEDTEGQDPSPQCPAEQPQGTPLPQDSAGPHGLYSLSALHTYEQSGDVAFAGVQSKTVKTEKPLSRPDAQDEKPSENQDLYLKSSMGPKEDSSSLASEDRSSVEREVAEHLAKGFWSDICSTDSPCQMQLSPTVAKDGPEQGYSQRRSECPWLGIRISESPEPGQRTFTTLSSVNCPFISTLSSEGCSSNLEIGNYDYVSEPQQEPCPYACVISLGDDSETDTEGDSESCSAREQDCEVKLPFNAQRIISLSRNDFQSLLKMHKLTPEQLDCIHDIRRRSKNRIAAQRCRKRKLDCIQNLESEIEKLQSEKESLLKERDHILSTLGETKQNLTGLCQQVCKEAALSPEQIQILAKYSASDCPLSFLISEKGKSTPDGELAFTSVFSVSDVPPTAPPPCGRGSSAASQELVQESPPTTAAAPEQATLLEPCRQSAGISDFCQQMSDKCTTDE
UniProt Q06348: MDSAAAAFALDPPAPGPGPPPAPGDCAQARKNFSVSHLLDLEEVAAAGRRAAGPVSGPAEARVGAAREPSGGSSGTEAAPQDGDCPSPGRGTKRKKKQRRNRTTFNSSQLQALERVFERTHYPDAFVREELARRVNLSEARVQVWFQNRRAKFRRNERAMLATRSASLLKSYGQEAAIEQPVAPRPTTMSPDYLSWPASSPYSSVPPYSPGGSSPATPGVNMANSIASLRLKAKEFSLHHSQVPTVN
UniProt P35639: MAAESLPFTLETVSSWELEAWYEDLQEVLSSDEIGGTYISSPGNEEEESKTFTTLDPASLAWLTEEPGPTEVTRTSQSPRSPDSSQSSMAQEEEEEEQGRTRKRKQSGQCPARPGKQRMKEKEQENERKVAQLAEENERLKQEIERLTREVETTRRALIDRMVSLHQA

No constants are given. Whether binding was seen depends on the method and setting. Binding seen in cells or lysates may run through a third protein. Some entries that bind do so weakly or less than the wild type.

Assay [1] deals with T1, Arid4b (mouse (endogenous in CJ9 mESCs)) (UniProt A2CG63).
T1 sequence: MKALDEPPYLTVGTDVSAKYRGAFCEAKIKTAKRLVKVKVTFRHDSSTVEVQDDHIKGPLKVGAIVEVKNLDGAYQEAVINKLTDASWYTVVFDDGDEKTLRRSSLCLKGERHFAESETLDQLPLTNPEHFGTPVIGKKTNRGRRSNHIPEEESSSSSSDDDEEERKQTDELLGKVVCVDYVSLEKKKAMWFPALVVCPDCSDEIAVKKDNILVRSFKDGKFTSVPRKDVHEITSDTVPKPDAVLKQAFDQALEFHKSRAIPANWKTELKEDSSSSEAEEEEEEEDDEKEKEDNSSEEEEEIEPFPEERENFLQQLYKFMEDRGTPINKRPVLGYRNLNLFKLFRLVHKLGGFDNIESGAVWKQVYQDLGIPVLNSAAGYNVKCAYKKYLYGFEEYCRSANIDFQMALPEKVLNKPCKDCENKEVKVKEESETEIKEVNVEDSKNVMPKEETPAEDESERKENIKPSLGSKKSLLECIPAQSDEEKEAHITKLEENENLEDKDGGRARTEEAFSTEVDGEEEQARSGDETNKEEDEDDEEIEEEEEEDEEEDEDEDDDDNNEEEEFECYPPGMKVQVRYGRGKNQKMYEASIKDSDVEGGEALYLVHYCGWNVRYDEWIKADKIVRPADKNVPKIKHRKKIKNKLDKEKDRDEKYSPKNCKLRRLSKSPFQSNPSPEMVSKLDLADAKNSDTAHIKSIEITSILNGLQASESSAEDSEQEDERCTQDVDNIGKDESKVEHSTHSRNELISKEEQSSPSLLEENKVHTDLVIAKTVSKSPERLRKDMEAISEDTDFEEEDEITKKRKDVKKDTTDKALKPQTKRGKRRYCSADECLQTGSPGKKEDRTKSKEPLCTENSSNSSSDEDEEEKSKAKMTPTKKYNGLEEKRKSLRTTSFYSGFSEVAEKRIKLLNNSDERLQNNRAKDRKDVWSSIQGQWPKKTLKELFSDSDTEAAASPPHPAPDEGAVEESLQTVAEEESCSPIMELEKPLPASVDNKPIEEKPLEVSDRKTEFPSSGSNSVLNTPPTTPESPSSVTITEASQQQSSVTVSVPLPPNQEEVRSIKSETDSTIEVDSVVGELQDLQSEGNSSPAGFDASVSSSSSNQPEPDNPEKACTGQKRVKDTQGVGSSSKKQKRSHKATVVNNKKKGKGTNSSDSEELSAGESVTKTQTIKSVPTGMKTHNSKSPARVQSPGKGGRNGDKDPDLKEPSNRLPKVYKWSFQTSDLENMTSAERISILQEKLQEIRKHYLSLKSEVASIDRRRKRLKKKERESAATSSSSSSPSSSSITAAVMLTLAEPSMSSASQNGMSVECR
Briefly: proximity ligation; Duolink In Situ Red kit with Arid4b (rabbit) and Tfap2c (mouse) primary antibodies on wild-type (CJ9) mESCs; confocal microscopy; control without primary antibodies.

Assay [2] addresses T1, Arid4b (mouse (endogenous in CJ9 mESCs)). Briefly: co-IP; endogenous co-IP from 400 ug wild-type (CJ9) mESC nuclear extract with 5 ug anti-Arid4b antibody, protein-G magnetic beads, extra washes in NP-40 buffer; controls: rabbit IgG IP and Arid4b antibody IP from arid4b-delta nuclear extract; Western blot. For orientation: In western blotting, separated proteins are transferred to a membrane and probed.

The target is the same in assay [3]. The assay is described as above. The source holds these as a separate data set.

Tfap2c (from UniProt Q61312 1-449): the binding result is listed as “binds” in assay [1] and “binds weakly” in assay [2]. Consider Bach1 (from UniProt P97302 1-739), for which the binding result in assay [2] is on record as “no binding”.

For Prrx2 (from UniProt Q06348 1-247), in assay [2], the binding entry is reported as “no binding”. Still for that read-out and setting: as for Ddit3 (from UniProt P35639 1-168), the entry is “no binding”.

B1: Sin3a (protein, UniProt Q60520 1-1274)
chain: MKRRLDDQESPVYAAQQRRIPGSTEAFSHQHRVLAPAPPVYEAVSETMQSATGIQYSVAPNYQVSAVPQSSGSHGPAIAAVHSSHHHPTAVQPHGGQVVQSHAHPAPPVAPVQGQQQFQRLKVEDALSYLDQVKLQFGSQPQVYNDFLDIMKEFKSQSIDTPGVISRVSQLFKGHPDLIMGFNTFLPPGYKIEVQTNDMVNVTTPGQVHQIPTHGIQPQPQPPPQHPSQPSSQSAPTPAQPAPQPTAAKVSKPSQLQAHTPASQQTPPLPPYASPRSPPVQPHTPVTISLGTAPSLQNNQPVEFNHAINYVNKIKNRFQGQPDIYKAFLEILHTYQKEQRNAKEAGGNYTPALTEQEVYAQVARLFKNQEDLLSEFGQFLPDANSSVLLSKTTAEKVDSVRNDHGGTVKKPQLNNKPQRPSQNGCQIRRHSGTGATPPVKKKPKLMSLKESSMADASKHGVGTESLFFDKVRKALRSAEAYENFLRCLVIFNQEVISRAELVQLVSPFLGKFPELFNWFKNFLGYKESVHLESFPKERATEGIAMEIDYASCKRLGSSYRALPKSYQQPKCTGRTPLCKEVLNDTWVSFPSWSEDSTFVSSKKTQYEEHIYRCEDERFELDVVLETNLATIRVLEAIQKKLSRLSAEEQAKFRLDNTLGGTSEVIHRKALQRIYADKAADIIDGLRKNPSIAVPIVLKRLKMKEEEWREAQRGFNKVWREQNEKYYLKSLDHQGINFKQNDTKVLRSKSLLNEIESIYDERQEQATEENAGVPVGPHLSLAYEDKQILEDAAALIIHHVKRQTGIQKEDKYKIKQIMHHFIPDLLFAQRGDLSDVEEEEEEEMDVDEATGAPKKHNGVGGSPPKSKLLFSNTAAQKLRGMDEVYNLFYVNNNWYIFMRLHQILCLRLLRICSQAERQIEEENREREWEREVLGIKRDKSDSPAIQLRLKEPMDVDVEDYYPAFLDMVRSLLDGNIDSSQYEDSLREMFTIHAYIAFTMDKLIQSIVRQLQHIVSDEVCVQVTDLYLAENNNGATGGQLNSQTSRSLLESAYQRKAEQLMSDENCFKLMFIQSQGQVQLTVELLDTEEENSDDPVEAERWSDYVERYMSSDTTSPELREHLAQKPVFLPRNLRRIRKCQRGREQQEKEGKEGNSKKTMENVESLDKLECRFKLNSYKMVYVIKSEDYMYRRTALLRAHQSHERVSKRLHQRFQAWVDKWTKEHVPREMAAETSKWLMGEGLEGLVPCTTTCDTETLHFVSINKYRVKYGTVFKAP
For B1, the binding entry in assay [3] is on record as “binds”.
